Data reported in PubChem BioAssay AID588342 (National Center for Advancing Translational Sciences (NCATS), 2011).
Hit rate of the full screen: of about 360,000 compounds, about 25,000 (6.9%) were called active. Inconclusive results, whose numbers are uncertain, are shown with a selection of clear calls. Calls follow the shape of the dose curve; as a rule, active = well fitted inhibition curve with a large enough effect; inconclusive = small, poorly fitted or top-dose-only effect; inactive = flat fitted curve, though single readings scatter. Where the call is inconclusive, the potency comes from a doubtful curve fit.

What follows are compounds tested against Luciferin 4-monooxygenase (Photinus pyralis) (UniProt P08659) (assay: qHTS profiling assay for firefly luciferase inhibitor/activator using purifed enzyme and Km concentrations of substrates (counterscreen for miR-21 project)). Settings: purified FLuc, luminescence inhibition; series mostly up to 57.5 µM.
From the text: MLPCN Grant: 1 R21 NS059478-01 (miR-21 grant) Assay Provider: NCGC NCGC Assay Overview: Firefly (Photinus pyralis) luciferase is one of the most commonly used transcriptional reporters for a number of reasons. It is considered one of the more dynamically responsive reporters -that is, responsive to changes in reporter transcription - as it requires no post-translational modifications and is enzymatically active directly after protein synthesis (Wood, 1998). Additionally, the half-life of the luciferase protein is short relative to other reporter-gene products (Wood, 1995). Whereas reporters with long half-lives potentially allow for increased signal due to accumulation of reporter-gene product, once accumulated in the cell, dynamic changes in reporter-gene expression may be difficult to detect(Fan and Wood, 2007; Almond et al., 2004). It has been shown that wild-type P. pyralis luciferase has a half-life of approximately […] hours in mammalian cells (Thompson et al., 1991). Firefly luciferase reporter-gene assays are also generally considered one of the most sensitive assay types (Wood, 1995; Wood, 1998). Although light produced in a bioluminescence reaction is of lower intensity than that produced during fluorescence emission, this is offset by little to no background light inherent to luminescent assays. Thus the luciferase reporter can be expressed at much lower levels than fluorescent proteins while still providing robust signal. # However, it was initially observed, in 1991, by Thompson et al., that compounds that resemble the substrates of firefly luciferase (FLuc) can act as competitive inhibitors of the enzyme, and that these compounds, upon interaction with luciferase in the cell, can actually stabilize the protein and increase its half-life. Accumulated intracellular FLuc protein can be measured as an increase in luminescence signal, upon addition of detection reagents (which contain high concentrations of FLuc substrates) commonly used in high-throughput screening. In cell-based reporter gene assays that use FLuc as the reporter gene to quantitate the potential influence of a given compound against the target biology, this apparent increase in luminescence can mistakenly be interpreted as identification of a compound that is active against the target of interest. This is the case for the miR-21 FLuc reporter gene assay used to identify inhibitors of the miR-21 pathway (PubChem AID 2289) - compounds of interest will inhibit miR-21 biogenesis/expression or activity, and are identified by causing an increase in luminescence, due to increased FLuc translation. However, FLuc inhibitory compounds that stabilize the FLuc protein will give an identical read-out, making it difficult to distinguish compounds that are active against the target from those active against FLuc. Previous profiling work to determine the prevalence of compounds that affect FLuc enzymatic activity (PubChem AID 411) identified that ~3% of the MLSMR library (then at ~72K) inhibited FLuc. […] Since the MLSMR had grown to ~350K compounds, and since it was expected that a significant percentage of compounds found active in the miR-21 FLuc assay would be FLuc inhibitors, the library was screened for activity against FLuc using a biochemical assay of purified FLuc and KM concentrations of FLuc substrates (D-luciferin and ATP).
NCGC Assay Protocol Summary: Reagents: 50mM Tris acetate, pH 7.5; 10mM Mg acetate; 10uM D-luciferin (Sigma #L9504); 10uM ATP; 0.01% Tween-20; 0.05% BSA; 10nM P. pyralis luciferase (Sigma #L9506) Control compounds used were two known firefly luciferase inhibitors (compounds (2) and (5) in Auld et al., 2010), and DMSO. […]
Also: nearly all actives have a fitted effect of over 55% in size.
Tags tell the direction and shape of the fitted curve.

UniProt P08659, sequence (P08659 whole entry, looked up): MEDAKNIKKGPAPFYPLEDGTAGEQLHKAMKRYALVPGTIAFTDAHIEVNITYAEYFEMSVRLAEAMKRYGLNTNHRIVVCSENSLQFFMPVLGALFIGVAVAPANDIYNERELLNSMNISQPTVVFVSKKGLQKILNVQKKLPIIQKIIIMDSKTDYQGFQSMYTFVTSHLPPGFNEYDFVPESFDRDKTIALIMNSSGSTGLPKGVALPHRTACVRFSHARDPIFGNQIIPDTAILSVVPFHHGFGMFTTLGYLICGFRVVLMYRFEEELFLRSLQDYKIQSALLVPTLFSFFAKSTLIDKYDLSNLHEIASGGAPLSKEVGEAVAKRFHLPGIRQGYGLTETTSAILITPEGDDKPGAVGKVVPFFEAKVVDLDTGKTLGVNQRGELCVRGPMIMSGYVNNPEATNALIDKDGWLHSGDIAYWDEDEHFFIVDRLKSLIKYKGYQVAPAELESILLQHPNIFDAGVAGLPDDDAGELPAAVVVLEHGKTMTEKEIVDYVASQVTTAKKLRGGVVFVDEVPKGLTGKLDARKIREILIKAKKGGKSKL

SMILES | Potency
O=[N+]([O-])c1ccc2c(c1N1CCCCC1)=NC1(CCCCC1)[N+]=2[O-] | inconclusive: 16.9 µM [inhibitor, partial curve]
[O-]/[N+](=C\c1ccc(F)cc1)c1ccccc1 | inconclusive: 10.7 µM [inhibitor, partial curve]
COc1ccc(S(=O)(=O)N2CCCCC2)cc1C(=O)Nc1cc(C)on1 | inactive
Cc1nn(Cc2ccccc2Cl)c2sc(C(=O)OC3CCCC3=O)cc12 (stereo not drawn) | inconclusive: 37.9 µM [inhibitor, partial curve, poor fit]
CCN(C(=O)CSc1nnc(-c2ccco2)n1C)c1c(N)n(Cc2ccccc2)c(=O)[nH]c1=O | inactive
CCC(=O)N1CCc2cc(S(=O)(=O)CCC(=O)N3CCN(c4ccccc4Cl)CC3)ccc21 | inactive
CC(C)c1ccc(CNc2ncc(Br)cn2)cc1 | inconclusive: 2.39 µM [inhibitor, full curve]
CCOC(=O)c1nc2cc3n(c(CC(C)C)c-2c1C)CC(C)=C3C | inconclusive: 8.49 µM [inhibitor, single point]
O=C(Oc1ccc(-c2nnco2)cc1)c1ccc(Br)o1 | inconclusive: 8.49 µM [inhibitor, partial curve, poor fit]
Cc1ccc(N(Cc2cccs2)C(=O)c2ccccc2)cc1 | inconclusive: 13.5 µM [inhibitor, partial curve, poor fit]
O=C(COC(=O)C1CC1)Nc1ccc2c(c1)OCO2 | inconclusive: 37.9 µM [inhibitor, partial curve, poor fit]
Cc1nc(-c2cccs2)sc1C(=O)O | inactive
O=C1CCCC/C1=C/Nc1cccc(C(F)(F)F)c1 | inconclusive: 26.9 µM [inhibitor, single point]
COC(=O)c1ccccc1NC(=O)Nc1ccc(C(=O)N2CCCC2)cc1 | inactive
Cc1noc(NS(=O)(=O)c2ccc(NC(=O)c3oc4ccc(F)cc4c3C)cc2)c1C | active: 15.1 µM
O=C(Nc1nnc(SCc2cc(=O)c3ccccc3[nH]2)s1)c1ccccc1 | inconclusive: 37.9 µM [inhibitor, single point]
Cc1cccc(NC(=O)c2cc3c(=O)n(Cc4ccco4)ccc3nc2C)c1 | inactive
CCCOC(=O)c1ccc(NC(=O)CC(C)(C)C)cc1 | inconclusive: 19 µM [inhibitor, partial curve, poor fit]
Cc1c(Cl)cccc1NC(=S)NC1CCN(C(C)C)CC1 | inactive
Cc1cc2n(n1)C(c1ccccc1)CC(c1ccc(Br)cc1)=N2 (stereo not drawn) | inconclusive: 37.9 µM [inhibitor, single point]
O=C(Nc1ccc(Cl)cc1)OCc1cncs1 | active: 15.1 µM
C/C(=N\N1CCN(Cc2ccccc2)CC1)c1ccco1 | inconclusive: 21.3 µM [inhibitor, partial curve, poor fit]
c1ccc2sc(NN=C3CCCC3)nc2c1 | active: 2.69 µM
COc1ccc(N=Nc2ccc(N)nc2N)cc1 | active: 2.39 µM

SMILES | Potency
COc1ccc(-c2coc3cc(OC4OC(CO)C(O)C(O)C4O)cc(O)c3c2=O)cc1 (stereo not drawn) | inconclusive: 21.3 µM [inhibitor, single point]
C/C(=N\Nc1ncnc2sc(C)c(C)c12)c1ccccn1 | active: 5.36 µM
COc1ccc(-c2csc(NC(=O)c3ccccc3NS(=O)(=O)c3ccc(F)c(F)c3)n2)cc1 | inconclusive: 26.9 µM [inhibitor, single point]
COc1ccc(-c2cn3c(n2)sc2cc(C(=O)NCc4cccs4)ccc23)cc1 | inactive
COc1ccc(-c2c3c(=O)n(C)c(=O)n(C)c3cn2-c2cccc(N)c2)cc1 | inactive
Cc1ccc(CNC(=O)C2CCN(C(=O)c3ccc(-n4ccc5ccccc54)s3)CC2)cc1 | inactive
CCOc1ccc(C(=O)Nc2ccc(N3CCN(C)CC3)cc2)cc1Br | active: 6.01 µM
COc1ccc(-c2cc(-c3ccccc3)c(C#N)c(=S)[nH]2)cc1 | inactive
CCC1CCC(c2nnc(-c3ccc([N+](=O)[O-])cc3)o2)CC1 (stereo not drawn) | inconclusive: 23.9 µM [inhibitor, partial curve, poor fit]
CCCCOc1ccc(C(=O)Oc2ccc(C)nc2)cc1 | inconclusive: 23.9 µM [inhibitor, single point]
O=C(c1ccccc1-c1nc(-c2ccc(F)cc2)no1)N1CCCC1 | inactive
CCn1c(C)nc2cc(C(=O)n3cc(C(=O)c4ccccc4O)cn3)ccc21 | inconclusive: 23.9 µM [inhibitor, single point]
COc1cc2c(cc1NC(=O)Nc1ccc(C)cc1)oc1ccccc12 | inactive
CC(C)(C)c1ccc(CSc2nc3c(c(=O)[nH]2)CCCC3)cc1 | inactive
COc1ccc(NC(=O)c2cccc(NC(=O)c3ccccc3)c2)cc1 | inconclusive: 8.49 µM [inhibitor, partial curve]
Cc1ccc(NNC(=O)Nc2ccc(Cl)cc2)nn1 | inconclusive: 19 µM [inhibitor, partial curve]
CCc1noc(C)c1C(=O)NNC(=O)c1ccc(N(CC)CC)cc1 | inconclusive: 42.6 µM [inhibitor, partial curve, poor fit]
CCOC(=O)Cc1csc(NC(=O)c2ccc(Br)cc2)n1 | active: 21.3 µM
O=C(COC(=O)c1ccc2[nH]c3c(c2c1)CCCC3)NC1CCS(=O)(=O)C1 (stereo not drawn) | inconclusive: 16.9 µM [inhibitor, partial curve]
O=C(N/N=C/c1cc2c(cc1Br)OCO2)c1c[nH]c2ccccc12 | active: 9.53 µM
O=C(N/N=C/c1ccc(O)c(O)c1)c1ccc(CSc2cccc3cccnc23)cc1 | inconclusive: 26.9 µM [inhibitor, partial curve, poor fit]
COC(=O)c1ccc(OCCn2cnc3ccccc3c2=O)cc1 | inconclusive: 16.9 µM [inhibitor, partial curve, poor fit]
O=C(Nc1ccc(Cl)cc1)c1csc(-c2ccncc2)n1 | inconclusive: 26.9 µM [inhibitor, single point]
CCOc1ccc(Nc2nc(Cc3nnc(SCC(=O)O)o3)cs2)cc1 | active: 8.49 µM
